Measurements taken from PMC12554184.
No constants are given. Whether binding was seen depends on the method and setting. Binding seen in cells or lysates may run through a third protein. Some binding calls cover weakened binding; strength is not graded here. For some assays here: Tags and fused reporters may be left off the sequences shown.

By UniProt entry, the sequences of proteins in these tests, tags left out.
UniProt P03148: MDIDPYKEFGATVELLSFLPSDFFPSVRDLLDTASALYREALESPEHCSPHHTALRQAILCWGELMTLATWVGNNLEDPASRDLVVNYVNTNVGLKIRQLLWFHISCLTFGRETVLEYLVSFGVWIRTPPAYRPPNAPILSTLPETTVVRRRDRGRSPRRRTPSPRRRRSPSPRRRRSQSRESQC
UniProt P08962: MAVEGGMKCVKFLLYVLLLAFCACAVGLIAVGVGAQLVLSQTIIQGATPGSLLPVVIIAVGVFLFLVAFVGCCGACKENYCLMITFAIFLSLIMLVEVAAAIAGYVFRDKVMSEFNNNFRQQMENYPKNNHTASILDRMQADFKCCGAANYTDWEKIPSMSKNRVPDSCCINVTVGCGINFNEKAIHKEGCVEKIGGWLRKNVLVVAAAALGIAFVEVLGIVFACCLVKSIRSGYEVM
UniProt P03146: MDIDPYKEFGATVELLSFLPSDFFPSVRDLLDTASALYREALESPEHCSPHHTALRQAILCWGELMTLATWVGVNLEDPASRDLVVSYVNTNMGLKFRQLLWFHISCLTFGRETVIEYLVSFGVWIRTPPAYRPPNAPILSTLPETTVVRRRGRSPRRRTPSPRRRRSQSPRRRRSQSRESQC
UniProt O14964: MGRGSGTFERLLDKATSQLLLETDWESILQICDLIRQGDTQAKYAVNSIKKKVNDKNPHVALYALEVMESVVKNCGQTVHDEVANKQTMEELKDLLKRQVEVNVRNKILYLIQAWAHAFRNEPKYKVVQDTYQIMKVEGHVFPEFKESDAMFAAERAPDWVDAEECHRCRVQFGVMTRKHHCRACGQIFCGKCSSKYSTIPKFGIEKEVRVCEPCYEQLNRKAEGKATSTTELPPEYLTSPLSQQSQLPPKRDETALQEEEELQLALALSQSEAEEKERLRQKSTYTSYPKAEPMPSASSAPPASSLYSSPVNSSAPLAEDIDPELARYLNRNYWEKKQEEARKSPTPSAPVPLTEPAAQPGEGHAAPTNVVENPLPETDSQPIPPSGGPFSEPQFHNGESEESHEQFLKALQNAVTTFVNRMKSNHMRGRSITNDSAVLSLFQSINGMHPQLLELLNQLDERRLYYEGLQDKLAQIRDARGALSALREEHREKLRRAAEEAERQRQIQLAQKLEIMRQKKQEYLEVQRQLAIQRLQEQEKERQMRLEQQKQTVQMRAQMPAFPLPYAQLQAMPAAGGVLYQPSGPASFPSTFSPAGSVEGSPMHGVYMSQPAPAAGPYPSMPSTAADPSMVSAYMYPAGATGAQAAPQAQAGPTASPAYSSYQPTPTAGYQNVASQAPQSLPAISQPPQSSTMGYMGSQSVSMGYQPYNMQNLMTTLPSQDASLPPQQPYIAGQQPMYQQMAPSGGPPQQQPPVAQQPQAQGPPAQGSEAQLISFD

Tests used:
[1] = biological target: wild-type HBV core protein (wt-HBc), 1-185 aa, HBV genotype A, subtype adw2 (hepatitis B virus (genotype A, subtype adw2)) (UniProt P03148); test: co-IP; HepG2-NTCP cells transfected with wt-HBc, Flag-HGS or Flag-SNF8/EAP30, with or without Flag-Myc-wt-UBE2O; IP with anti-capsid antibodies, Western blot anti-Flag
[2] = biological target: T1, endogenous ubiquitin-conjugating enzyme E2 O (UBE2O) (human (endogenous in HepG2-NTCP)) (UniProt Q9C0C9); test: co-IP; HBV-infected HepG2-NTCP cells, lysates 6 days post-infection; IP with anti-UBE2O (isotype control antibody beside it), Western blot anti-HBc and anti-UBE2O; both proteins at their level in infected cells
T1 sequence: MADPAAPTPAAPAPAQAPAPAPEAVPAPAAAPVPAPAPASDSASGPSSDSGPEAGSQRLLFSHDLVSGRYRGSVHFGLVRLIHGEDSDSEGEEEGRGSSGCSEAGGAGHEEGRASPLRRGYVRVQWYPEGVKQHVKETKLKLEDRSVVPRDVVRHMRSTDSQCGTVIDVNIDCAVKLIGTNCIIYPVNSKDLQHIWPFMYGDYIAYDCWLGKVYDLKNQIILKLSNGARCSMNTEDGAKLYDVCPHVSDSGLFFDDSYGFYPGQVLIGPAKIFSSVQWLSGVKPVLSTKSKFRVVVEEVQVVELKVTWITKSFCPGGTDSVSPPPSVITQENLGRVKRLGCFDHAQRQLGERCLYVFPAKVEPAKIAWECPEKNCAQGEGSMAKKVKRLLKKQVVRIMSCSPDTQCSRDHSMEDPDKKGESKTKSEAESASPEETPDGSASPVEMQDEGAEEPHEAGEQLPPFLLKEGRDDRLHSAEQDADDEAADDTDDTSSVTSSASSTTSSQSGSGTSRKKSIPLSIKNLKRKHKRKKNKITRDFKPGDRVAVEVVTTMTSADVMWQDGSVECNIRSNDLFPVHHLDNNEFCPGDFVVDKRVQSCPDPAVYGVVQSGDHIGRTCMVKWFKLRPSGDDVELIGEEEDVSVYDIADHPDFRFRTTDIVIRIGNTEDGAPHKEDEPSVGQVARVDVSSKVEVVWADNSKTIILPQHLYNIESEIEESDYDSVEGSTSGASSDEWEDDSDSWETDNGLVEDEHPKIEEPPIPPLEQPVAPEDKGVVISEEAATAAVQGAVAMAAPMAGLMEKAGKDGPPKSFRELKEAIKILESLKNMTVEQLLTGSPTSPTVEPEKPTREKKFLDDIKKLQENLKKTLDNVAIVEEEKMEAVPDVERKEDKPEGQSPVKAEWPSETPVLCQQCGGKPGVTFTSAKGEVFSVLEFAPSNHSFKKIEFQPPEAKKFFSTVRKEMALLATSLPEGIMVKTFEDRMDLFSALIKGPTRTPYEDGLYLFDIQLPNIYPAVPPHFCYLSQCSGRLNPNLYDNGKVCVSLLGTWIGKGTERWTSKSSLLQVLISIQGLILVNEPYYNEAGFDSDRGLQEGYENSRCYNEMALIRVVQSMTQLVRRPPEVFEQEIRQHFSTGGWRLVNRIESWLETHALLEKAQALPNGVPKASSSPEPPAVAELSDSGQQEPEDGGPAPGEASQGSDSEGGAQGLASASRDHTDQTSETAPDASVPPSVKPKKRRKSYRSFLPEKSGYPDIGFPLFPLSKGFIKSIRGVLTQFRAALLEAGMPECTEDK

[3] = biological target: wild-type HBV core protein (wt-HBc), 1-185 aa, HBV genotype A, subtype adw2 (hepatitis B virus (genotype A, subtype adw2)) (UniProt P03148); test: co-IP; HepG2-NTCP cells co-transfected with UBE2O-wt or UBE2O-CD and HBc (WT) or Ub-fused HBc; cytoplasmic protein extracts; IP anti-Flag or anti-HBc, Western blot anti-HBc or anti-Flag
[4] = biological target: CD63 (endogenous) (human (endogenous in HepG2-NTCP)) (UniProt P08962); test: proximity ligation; Duolink PLA for UBE2O and CD63 in HBV-infected HepG2-NTCP cells, 6 days post-infection; mouse isotype antibody as control
[5] = biological target: HBV core protein (HBc) / capsid produced during HBV infection (hepatitis B virus) (UniProt P03146); test: proximity ligation; Duolink PLA with mouse anti-capsid (Hyb-3120) and rabbit anti-UBE2O; HBV-infected HepG2-NTCP cells at day 6 post-infection and HepAD38 cells (Tet+ / Tet-); fixed, permeabilised cells
[6] = biological target: HBV core protein (HBc) / capsid produced during HBV infection (hepatitis B virus) (UniProt P03146); test: co-IP; HepG2-NTCP cells transfected with Flag-Myc-UBE2O, infected with HBV 2 days later; lysates 6 days post-infection; IP with anti-HBc or anti-capsid (Hyb-3120), Western blot anti-Flag and anti-HBc
[7] = biological target: wild-type HBV core protein (wt-HBc), 1-185 aa, HBV genotype A, subtype adw2 (hepatitis B virus (genotype A, subtype adw2)) (UniProt P03148); test: co-IP; HepG2-NTCP cells co-transfected with Flag-Myc-UBE2O and wt-HBc or mutants; lysates 2 days post-transfection; IP anti-HBc or anti-Flag, Western blot anti-Flag or anti-HBc

Molecule: Flag-tagged HGS (from UniProt O14964 1-777)
- binding [1]: binds

Molecule: HBV core protein (HBc) / capsid produced during HBV infection (from UniProt P03146 1-183)
- binding [2]: binds

Molecule: Flag-Myc-tagged catalytically-defective UBE2O (C1040S) (from UniProt Q9C0C9 1-1292) (enzyme)
- binding [3]: no binding

B1: endogenous ubiquitin-conjugating enzyme E2 O (UBE2O) (enzyme, UniProt Q9C0C9 1-1292)
chain: T1 sequence
- binding [4]: binds
- binding [5]: binds

B2: Flag-Myc-tagged wild-type UBE2O (enzyme, UniProt Q9C0C9 1-1292)
chain: T1 sequence
- binding [3]: binds
- binding [6]: binds
- binding [7]: binds
